Laboratory results reported in publication PMC8759821.
Substitutions are numbered along the chain they refer to. No constants are given. Whether binding was seen depends on the method and setting. Some results given as binding are weak or reduced against the parent protein; the word gives no strength. Where a sequence is shown, tags or fusion partners need not be part of it.

By UniProt entry, the sequences of proteins in these tests, tags left out.
UniProt P06104: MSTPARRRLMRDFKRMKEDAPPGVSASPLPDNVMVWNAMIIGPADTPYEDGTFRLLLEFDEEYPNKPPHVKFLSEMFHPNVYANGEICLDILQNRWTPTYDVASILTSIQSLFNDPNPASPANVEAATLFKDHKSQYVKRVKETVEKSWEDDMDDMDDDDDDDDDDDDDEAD
UniProt P15873: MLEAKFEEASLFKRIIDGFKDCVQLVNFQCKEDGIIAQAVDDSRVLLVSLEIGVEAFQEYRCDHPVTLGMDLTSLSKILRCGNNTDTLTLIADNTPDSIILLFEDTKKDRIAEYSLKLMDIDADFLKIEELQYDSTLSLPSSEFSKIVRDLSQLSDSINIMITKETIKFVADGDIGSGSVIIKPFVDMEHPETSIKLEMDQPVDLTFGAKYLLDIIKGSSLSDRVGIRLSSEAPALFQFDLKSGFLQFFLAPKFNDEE

What was measured:
[1] = target: T1, CC190,193GG Rad18 mutant protein (Zn*) (Saccharomyces cerevisiae) (UniProt P10862); assay: two-hybrid; as a1 but in the rad18Δ pol30-K164R variant of PJ69-4A (no endogenous Rad18, genomic PCNA K164R); growth on SC-leu/trp/his, 3-AT where indicated; 30 °C, 3-6 days
T1 sequence: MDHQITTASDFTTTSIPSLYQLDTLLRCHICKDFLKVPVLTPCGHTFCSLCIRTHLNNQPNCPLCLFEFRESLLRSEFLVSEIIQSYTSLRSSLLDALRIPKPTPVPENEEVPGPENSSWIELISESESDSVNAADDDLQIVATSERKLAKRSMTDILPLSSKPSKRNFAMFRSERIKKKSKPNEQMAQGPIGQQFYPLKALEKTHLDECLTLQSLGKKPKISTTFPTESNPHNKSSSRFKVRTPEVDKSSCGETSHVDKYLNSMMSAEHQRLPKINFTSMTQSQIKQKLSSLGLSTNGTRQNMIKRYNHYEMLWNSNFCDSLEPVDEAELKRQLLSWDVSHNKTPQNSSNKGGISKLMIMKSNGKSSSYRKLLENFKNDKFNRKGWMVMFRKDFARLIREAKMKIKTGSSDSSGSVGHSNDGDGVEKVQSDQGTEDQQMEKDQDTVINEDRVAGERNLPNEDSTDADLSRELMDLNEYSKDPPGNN

[2] = target: T2, Rad18 (wild type, Saccharomyces cerevisiae) (Saccharomyces cerevisiae) (UniProt P10862); assay: as above
T2 sequence: T1 sequence with G190C, G193C

[3] = target: T1, CC190,193GG Rad18 mutant protein (Zn*) (Saccharomyces cerevisiae); assay: two-hybrid; Gal4-BD (pGBT9+1) and Gal4-AD (pGAD424+1) fusions co-transformed into wt PJ69-4A; growth on SC-leu/trp/his (HIS3 reporter), 3-amino-1,2,4-triazole where indicated; 30 °C, 3-6 days
[4] = target: T2, Rad18 (wild type, Saccharomyces cerevisiae) (Saccharomyces cerevisiae); assay: as above
[5] = target: T2, Rad18 (wild type, Saccharomyces cerevisiae) (Saccharomyces cerevisiae); assay: as above; remark: listed apart in the source
[6] = target: Rad6 (Saccharomyces cerevisiae) (UniProt P06104); assay: as above
[7] = target: Rad6 (Saccharomyces cerevisiae) (UniProt P06104); assay: two-hybrid; as a1 but in the rad18Δ pol30-K164R variant of PJ69-4A (no endogenous Rad18, genomic PCNA K164R); growth on SC-leu/trp/his, 3-AT where indicated; 30 °C, 3-6 days
[8] = target: T1, CC190,193GG Rad18 mutant protein (Zn*) (Saccharomyces cerevisiae); assay: two-hybrid; Gal4-BD (pGBT9+1) and Gal4-AD (pGAD424+1) fusions co-transformed into wt PJ69-4A; growth on SC-leu/trp/his (HIS3 reporter), 3-amino-1,2,4-triazole where indicated; 30 °C, 3-6 days; remark: listed apart in the source
[9] = target: T3, Znf- peptide (Rad18 amino acids 170-230, CC190,193GG mutant Zn-finger) (Saccharomyces cerevisiae) (UniProt P10862); assay: two-hybrid; Gal4-BD fusions of the Rad18 170-230 peptides (Znf+, Znf-) with Rad5; host strain of this panel (Figure 6C) not stated; growth on SC-leu/trp/his
T3 sequence: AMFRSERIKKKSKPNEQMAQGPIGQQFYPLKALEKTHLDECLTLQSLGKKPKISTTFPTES

[10] = target: T4, Znf+ peptide (Rad18 amino acids 170-230, wt Zn-finger) (Saccharomyces cerevisiae) (UniProt P10862); assay: as above
T4 sequence: T3 sequence with G21C, G24C

## PCNA (Pol30) (from UniProt P15873 1-258)
[1]
  binding: binds
[2]
  binding: binds
[3]
  binding: binds
[4]
  binding: binds

B1: Rad18 (wild type, Saccharomyces cerevisiae) (protein, UniProt P10862 1-487)
chain: T1 sequence with G190C, G193C
[5]
  binding: binds
[6]
  binding: binds
[2]
  binding: binds
[7]
  binding: binds

B2: Rad5 (protein, UniProt P32849 1-1169)
chain: MSHIEQEERKRFFNDDLDTSETSLNFKSENKESFLFANSHNDDDDDVVVSVSDTTEGEGDRSIVPVRREIEEEGQNQFITELLRIIPEMPKDLVMELNEKFGSQEEGLSLALSHYFDHNSGTSISKIPSSPNQLNTLSDTSNSTLSPSSFHPKRRRIYGFRNQTRLEDKVTWKRFIGALQVTGMATRPTVRPLKYGSQMKLKRSSEEISATKVYDSRGRKKASMASLVRIFDIQYDREIGRVSEDIAQILYPLLSSHEISFEVTLIFCDNKRLSIGDSFILQLDCFLTSLIFEERNDGESLMKRRRTEGGNKREKDNGNFGRTLTETDEELESRSKRLALLKLFDKLRLKPILDEQKALEKHKIELNSDPEIIDLDNDEICSNQVTEVHNNLRDTQHEEETMNLNQLKTFYKAAQSSESLKSLPETEPSRDVFKLELRNYQKQGLTWMLRREQEFAKAASDGEASETGANMINPLWKQFKWPNDMSWAAQNLQQDHVNVEDGIFFYANLHSGEFSLAKPILKTMIKGGILSDEMGLGKTVAAYSLVLSCPHDSDVVDKKLFDIENTAVSDNLPSTWQDNKKPYASKTTLIVVPMSLLTQWSNEFTKANNSPDMYHEVYYGGNVSSLKTLLTKTKTPPTVVLTTYGIVQNEWTKHSKGRMTDEDVNISSGLFSVNFYRIIIDEGHNIRNRTTVTSKAVMALQGKCKWVLTGTPIINRLDDLYSLVKFLELDPWRQINYWKTFVSTPFESKNYKQAFDVVNAILEPVLLRRTKQMKDKDGKPLVELPPKEVVIKRLPFSKSQDLLYKFLLDKAEVSVKSGIARGDLLKKYSTILVHILRLRQVCCHPGLIGSQDENDEDLSKNNKLVTEQTVELDSLMRVVSERFDNSFSKEELDAMIQRLKVKYPDNKSFQSLECSICTTEPMDLDKALFTECGHSFCEKCLFEYIEFQNSKNLGLKCPNCRNQIDACRLLALVQTNSNSKNLEFKPYSPASKSSKITALLKELQLLQDSSAGEQVVIFSQFSTYLDILEKELTHTFSKDVAKIYKFDGRLSLKERTSVLADFAVKDYSRQKILLLSLKAGGVGLNLTCASHAYMMDPWWSPSMEDQAIDRLHRIGQTNSVKVMRFIIQDSIEEKMLRIQEKKRTIGEAMDTDEDERRKRRIEEIQMLFE
[8]
  binding: no binding
[5]
  binding: binds
[9]
  binding: no binding
[10]
  binding: binds
[1]
  binding: no binding
[2]
  binding: binds

B3: CC190,193GG Rad18 mutant protein (Zn*) (protein, UniProt P10862 1-487)
chain: T1 sequence
[8]
  binding: binds
[6]
  binding: binds
[1]
  binding: binds
[7]
  binding: binds
